No constants are given. Whether binding was seen depends on the method and setting. For part of these data: Binding seen in cells or lysates may run through a third protein. Some binding calls cover weakened binding; strength is not graded here. For part of these data: Where a sequence is shown, tags or fusion partners need not be part of it. Blank lines part the entries; values can stand above or below the molecule they belong to.
Legend:
[1] = target: T1, HisMBP-CYCA1;2/TAM (Arabidopsis thaliana) (UniProt Q9FVX0); experiment: pull-down; HisMBP-CYCA1;2/TAM co-expressed with StrepIII-CDK and GST-Cak1 in E. coli, purified on a Ni-NTA column; co-purified StrepIII-CDKs detected with strep-tactin HRP
T1 sequence: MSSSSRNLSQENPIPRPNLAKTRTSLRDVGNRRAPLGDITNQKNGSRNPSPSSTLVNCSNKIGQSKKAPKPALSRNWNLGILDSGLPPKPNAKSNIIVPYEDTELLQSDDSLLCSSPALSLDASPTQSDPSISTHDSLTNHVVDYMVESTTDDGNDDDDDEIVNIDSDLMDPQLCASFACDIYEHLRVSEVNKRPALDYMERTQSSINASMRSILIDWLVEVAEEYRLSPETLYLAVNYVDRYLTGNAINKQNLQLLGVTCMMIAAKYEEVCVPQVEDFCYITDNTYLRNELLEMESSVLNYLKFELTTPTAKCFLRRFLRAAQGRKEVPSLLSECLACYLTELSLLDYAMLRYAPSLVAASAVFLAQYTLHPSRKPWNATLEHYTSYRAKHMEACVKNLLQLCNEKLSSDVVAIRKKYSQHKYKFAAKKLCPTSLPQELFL

By UniProt entry, the sequences of proteins in these tests, tags left out.
UniProt P25859: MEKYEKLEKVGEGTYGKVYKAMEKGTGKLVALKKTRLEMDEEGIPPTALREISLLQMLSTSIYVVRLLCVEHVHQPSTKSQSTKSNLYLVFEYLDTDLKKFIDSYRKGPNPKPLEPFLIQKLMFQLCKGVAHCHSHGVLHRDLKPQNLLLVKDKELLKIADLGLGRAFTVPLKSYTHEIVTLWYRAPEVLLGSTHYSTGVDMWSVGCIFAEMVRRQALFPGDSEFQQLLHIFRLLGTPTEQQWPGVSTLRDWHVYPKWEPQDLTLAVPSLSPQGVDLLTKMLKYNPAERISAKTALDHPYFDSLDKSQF
UniProt P24100: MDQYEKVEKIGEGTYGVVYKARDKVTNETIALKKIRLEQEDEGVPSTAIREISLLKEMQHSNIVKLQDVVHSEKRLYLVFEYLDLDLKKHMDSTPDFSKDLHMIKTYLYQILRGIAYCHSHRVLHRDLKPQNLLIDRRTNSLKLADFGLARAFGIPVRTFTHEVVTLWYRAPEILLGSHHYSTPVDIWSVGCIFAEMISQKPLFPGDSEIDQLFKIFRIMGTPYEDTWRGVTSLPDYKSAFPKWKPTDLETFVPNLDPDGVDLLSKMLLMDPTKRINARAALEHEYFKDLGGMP

[2] = target: T2, OSD1 (OMISSION OF SECOND DIVISION), yeast two-hybrid bait (Arabidopsis thaliana) (UniProt Q9M2R1); experiment: two-hybrid; OSD1 as bait (pDEST32) with different APC/C subunits as prey (pDEST22), by mating
T2 sequence: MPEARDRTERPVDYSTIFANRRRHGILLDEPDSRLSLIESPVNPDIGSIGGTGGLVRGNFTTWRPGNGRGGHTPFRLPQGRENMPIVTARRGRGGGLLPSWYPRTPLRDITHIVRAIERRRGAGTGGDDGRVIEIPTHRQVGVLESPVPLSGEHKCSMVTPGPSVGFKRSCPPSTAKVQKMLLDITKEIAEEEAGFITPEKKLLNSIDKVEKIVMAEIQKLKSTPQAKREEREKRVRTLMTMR

[3] = target: T3, CCS52A1, TAP-tagged bait (Arabidopsis thaliana) (UniProt Q8L3Z8); experiment: tandem affinity purification with western blot; TAP-tagged CDC20s and CCS52s as baits; tandem purified elutions separated by SDS-PAGE and probed with anti-OSD1 antibody; anti-CBP as loading control
T3 sequence: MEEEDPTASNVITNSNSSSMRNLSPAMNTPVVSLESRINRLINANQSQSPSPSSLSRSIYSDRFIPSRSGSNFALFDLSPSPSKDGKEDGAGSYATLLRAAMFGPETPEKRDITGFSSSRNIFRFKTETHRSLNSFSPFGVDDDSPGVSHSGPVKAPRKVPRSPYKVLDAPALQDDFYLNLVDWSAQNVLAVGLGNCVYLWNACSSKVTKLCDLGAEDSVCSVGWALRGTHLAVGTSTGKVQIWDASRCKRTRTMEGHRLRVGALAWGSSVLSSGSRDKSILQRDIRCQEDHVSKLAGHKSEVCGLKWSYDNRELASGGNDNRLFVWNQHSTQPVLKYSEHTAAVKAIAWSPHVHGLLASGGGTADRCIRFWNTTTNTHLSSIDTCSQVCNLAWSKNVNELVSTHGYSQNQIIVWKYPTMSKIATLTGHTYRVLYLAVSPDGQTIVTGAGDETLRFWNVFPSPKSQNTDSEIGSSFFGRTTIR

[4] = target: T4, CDC20.3, TAP-tagged bait (Arabidopsis thaliana) (UniProt Q9S7H3); experiment: as above
T4 sequence: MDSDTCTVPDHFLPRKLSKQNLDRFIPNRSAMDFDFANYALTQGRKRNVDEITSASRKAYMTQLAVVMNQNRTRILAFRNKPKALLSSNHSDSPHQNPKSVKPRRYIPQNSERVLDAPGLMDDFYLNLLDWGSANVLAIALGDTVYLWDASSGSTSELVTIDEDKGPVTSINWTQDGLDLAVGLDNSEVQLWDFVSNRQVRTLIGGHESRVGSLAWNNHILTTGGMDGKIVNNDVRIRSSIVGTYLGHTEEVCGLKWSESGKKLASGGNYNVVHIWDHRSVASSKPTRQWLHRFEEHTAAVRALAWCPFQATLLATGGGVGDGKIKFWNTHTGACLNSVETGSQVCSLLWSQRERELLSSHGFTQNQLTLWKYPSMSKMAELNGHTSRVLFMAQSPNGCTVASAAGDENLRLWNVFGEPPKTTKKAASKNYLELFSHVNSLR

[5] = target: T5, CCS52B, TAP-tagged bait (Arabidopsis thaliana) (UniProt Q8LPL5); experiment: as above
T5 sequence: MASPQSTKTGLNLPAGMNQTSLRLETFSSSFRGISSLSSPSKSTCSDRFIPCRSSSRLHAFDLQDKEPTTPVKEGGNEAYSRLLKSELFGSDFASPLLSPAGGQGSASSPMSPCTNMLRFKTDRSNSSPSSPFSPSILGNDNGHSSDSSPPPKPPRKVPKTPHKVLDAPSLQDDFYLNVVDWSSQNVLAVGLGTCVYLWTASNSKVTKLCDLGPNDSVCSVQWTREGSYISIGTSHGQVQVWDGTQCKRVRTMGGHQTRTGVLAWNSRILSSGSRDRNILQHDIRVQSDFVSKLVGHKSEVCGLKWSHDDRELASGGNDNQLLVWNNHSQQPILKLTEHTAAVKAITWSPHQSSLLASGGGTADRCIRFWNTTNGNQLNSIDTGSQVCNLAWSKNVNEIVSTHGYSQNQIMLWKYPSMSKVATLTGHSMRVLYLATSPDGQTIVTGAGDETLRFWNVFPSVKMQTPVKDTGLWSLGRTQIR

[6] = target: T6, CCS52A2, TAP-tagged bait (Arabidopsis thaliana) (UniProt Q8VZS9); experiment: as above
T6 sequence: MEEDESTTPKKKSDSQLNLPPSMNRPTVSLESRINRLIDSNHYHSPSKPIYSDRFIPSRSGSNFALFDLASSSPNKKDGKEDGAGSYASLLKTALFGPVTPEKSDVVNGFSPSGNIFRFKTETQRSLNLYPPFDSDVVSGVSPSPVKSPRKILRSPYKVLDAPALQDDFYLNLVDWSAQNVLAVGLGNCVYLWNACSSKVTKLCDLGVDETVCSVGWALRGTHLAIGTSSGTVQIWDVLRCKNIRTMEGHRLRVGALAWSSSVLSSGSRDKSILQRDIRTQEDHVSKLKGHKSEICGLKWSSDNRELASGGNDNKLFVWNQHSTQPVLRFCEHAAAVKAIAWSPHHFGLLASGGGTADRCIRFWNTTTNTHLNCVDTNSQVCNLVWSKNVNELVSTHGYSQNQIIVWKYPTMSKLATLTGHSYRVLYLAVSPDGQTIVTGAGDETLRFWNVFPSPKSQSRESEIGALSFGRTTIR

[7] = target: T2, OSD1 (OMISSION OF SECOND DIVISION), yeast two-hybrid bait (Arabidopsis thaliana); experiment: two-hybrid; OSD1 mutant alleles as bait (pDEST32) against CCS52A1 as prey (pDEST22), cotransformation into yeast strain PJ69-4a
[8] = target: T7, OSD1ΔD, yeast two-hybrid bait (Arabidopsis thaliana) (UniProt Q9M2R1); experiment: as above
T7 sequence: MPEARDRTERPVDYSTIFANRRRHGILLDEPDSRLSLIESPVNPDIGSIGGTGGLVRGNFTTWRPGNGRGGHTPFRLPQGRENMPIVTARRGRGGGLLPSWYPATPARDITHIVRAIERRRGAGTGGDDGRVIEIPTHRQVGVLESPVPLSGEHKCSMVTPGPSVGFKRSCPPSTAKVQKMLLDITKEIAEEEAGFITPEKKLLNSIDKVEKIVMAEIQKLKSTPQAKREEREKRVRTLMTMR

[9] = target: T8, OSD1ΔGxEN, yeast two-hybrid bait (Arabidopsis thaliana) (UniProt Q9M2R1); experiment: as above
T8 sequence: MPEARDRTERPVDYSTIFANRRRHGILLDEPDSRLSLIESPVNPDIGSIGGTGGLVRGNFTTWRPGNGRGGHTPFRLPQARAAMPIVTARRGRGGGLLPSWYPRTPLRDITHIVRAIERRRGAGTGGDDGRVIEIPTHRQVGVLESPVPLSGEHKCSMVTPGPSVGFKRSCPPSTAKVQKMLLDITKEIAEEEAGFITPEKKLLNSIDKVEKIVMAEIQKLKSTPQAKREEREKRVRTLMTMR

binding [1]: binds
Molecule: StrepIII-CDKB1;1 (from UniProt P25859 1-309) (enzyme)

binding [1]: binds
Molecule: StrepIII-CDKA;1 (from UniProt P24100 1-294) (enzyme)

binding [2]: no binding
B1: APC10, yeast two-hybrid prey (protein, UniProt Q9ZPW2 1-192)
chain: MATESSESEEEGKISGGNYKLIIDDDLREMGKNAAWSVSSCKPGNGVTTLRDDNLETYWQSDGLQPHLINIQFQKKVKLQLVVLYVDFKLDESYTPSKISIRAGDGFHNLKEIKSVELVKPTGWVCLSLSGTDPRETFVNTFMLQIAILSNHLNGRDTHIRQIKVYGPRPNPIPHQPFQFTSMEFLTYSTLR

binding [1]: binds
B2: StrepIII-CDKB2;2 (enzyme, UniProt Q8LG64 1-315)
chain: MDNNGVKPAVSAMEAFEKLEKVGEGTYGKVYRAREKATGMIVALKKTRLHEDEEGVPPTTLREISILRMLARDPHIVRLMDVKQGINKEGKTVLYLVFEYVDTDLKKFIRSFRQAGQNIPQNTVKCLMYQLCKGMAFCHGHGVLHRDLKPHNLLMDRKTMTLKIADLGLARAFTLPMKKYTHEILTLWYRAPEVLLGATHYSTGVDMWSVGCIFAELVTKQAIFAGDSELQQLLRIFRLLGTPNEEVWPGVSKLKDWHEYPQWKPLSLSTAVPNLDEAGLDLLSKMLEYEPAKRISAKKAMEHPYFDDLPDKSSL

binding [3]: binds
binding [4]: no binding
binding [5]: binds
binding [6]: binds
B3: OSD1 detected in TAP elutions (protein, UniProt Q9M2R1 1-243)
chain: MPEARDRTERPVDYSTIFANRRRHGILLDEPDSRLSLIESPVNPDIGSIGGTGGLVRGNFTTWRPGNGRGGHTPFRLPQGRENMPIVTARRGRGGGLLPSWYPRTPLRDITHIVRAIERRRGAGTGGDDGRVIEIPTHRQVGVLESPVPLSGEHKCSMVTPGPSVGFKRSCPPSTAKVQKMLLDITKEIAEEEAGFITPEKKLLNSIDKVEKIVMAEIQKLKSTPQAKREEREKRVRTLMTMR

binding [7]: binds
binding [8]: no binding
binding [9]: binds
binding [2]: binds
B4: CCS52A1, yeast two-hybrid prey (protein, UniProt Q8L3Z8 1-483)
chain: MEEEDPTASNVITNSNSSSMRNLSPAMNTPVVSLESRINRLINANQSQSPSPSSLSRSIYSDRFIPSRSGSNFALFDLSPSPSKDGKEDGAGSYATLLRAAMFGPETPEKRDITGFSSSRNIFRFKTETHRSLNSFSPFGVDDDSPGVSHSGPVKAPRKVPRSPYKVLDAPALQDDFYLNLVDWSAQNVLAVGLGNCVYLWNACSSKVTKLCDLGAEDSVCSVGWALRGTHLAVGTSTGKVQIWDASRCKRTRTMEGHRLRVGALAWGSSVLSSGSRDKSILQRDIRCQEDHVSKLAGHKSEVCGLKWSYDNRELASGGNDNRLFVWNQHSTQPVLKYSEHTAAVKAIAWSPHVHGLLASGGGTADRCIRFWNTTTNTHLSSIDTCSQVCNLAWSKNVNELVSTHGYSQNQIIVWKYPTMSKIATLTGHTYRVLYLAVSPDGQTIVTGAGDETLRFWNVFPSPKSQNTDSEIGSSFFGRTTIR

Source: publication PMC3406007
